# Data as given in PubChem BioAssay AID463173 (ICCB-Longwood Screening Facility, Harvard Medical School, 2010).
# Screen size: about 52,000 compounds; about 1,700 (3.3%) were called active. Rule as the data show it: active = survival mostly below about 52% (no sharp cut-off); inactive = mostly above about 56%. This is one part of the list.
# Test system: Wild type
# Assay: S. aureus survival, RN4220 and DeltatarO strains – OD600, teichoic acid synthesis inhibitors, primary screen (AID 463173)
# Details: S. aureus RN4220 wild type/DeltatarO growth, OD600, 18 h, hits give low values, screened at 18.75 µg/mL (by protocol)
row,Structure (SMILES),survival
1,COc1ccc(CCNC(=O)CCCCCn2c(=O)[nH]c3cc(OC)c(OC)cc3c2=O)cc1OC,inactive: 93%
2,Cc1ccc(C)c(Cn2c(C)c(CNCc3ccc(F)cc3)c(C(=O)O)c2C)c1,inactive: 85%
3,Cc1ccc2c(c1)c(=O)c(C(=O)c1ccncc1)cn2CC(=O)Nc1ccccc1Cl,inactive: 76%
4,CSc1nnc(COc2ccc(Br)cc2)n1Cc1ccccc1,inactive: 112%
5,CCc1ccc(C2=CC(c3cccc(Br)c3)n3nnnc3N2)cc1 (centres undefined),inactive: 81%
6,CC(C)C(=O)Nc1cccc(NC2=NS(=O)(=O)c3ccccc32)c1,inactive: 82%
7,CCOC(=O)c1cccc(NC(c2nnc(-c3ccccc3)o2)c2ccccc2F)c1 (centres undefined),inactive: 87%
8,Cc1ccc(C)c(N2CCN(c3nc4ccccc4c4nc(-c5cccnc5)nn34)CC2)c1,inactive: 82%
9,CCc1ccc(NC(=O)Cn2c(=O)oc3cc(S(=O)(=O)NCc4ccccc4)ccc32)cc1,inactive: 132%
10,Cc1ccc(CNC(=O)C2CCCN(c3nnc(-n4c(C)ccc4C)s3)C2)cc1 (centres undefined),inactive: 69%
11,COc1ccc(NC(=O)CSc2nc(O)c(C/C=C/c3ccccc3)c(=O)[nH]2)cc1,inactive: 68%
12,COc1ccccc1CNC(=O)CCC1N=C2c3ccccc3N=C(SCc3ccccc3Cl)N2C1=O (centres undefined),inactive: 22%
13,CCSc1nc(-c2ccc(Cl)cc2)nc2c1Cc1c(CO)cnc(C)c1O2,inactive: 76%
14,O=S(=O)(c1ccc(Br)cc1)N1CCOCC1,inactive: 109%
15,CCOC(=O)c1ccc(NC(=O)CCn2cnnn2)cc1,inactive: 78%
16,CC1(C)CC(NC(=O)C2CCCCC2)CC(C)(C)N1,inactive: 92%
17,COC(=O)c1cnc(N2CCN(c3ccccc3OC)CC2)c2ccccc12,inactive: 78%
18,CCOC(=O)c1sc2ccccc2c1S(=O)(=O)NCc1ccc(F)cc1,inactive: 75%
19,COc1ccc(-c2cc(C(F)(F)F)n3nc(C(=O)Nc4cccc(C(F)(F)F)c4)c(Br)c3n2)cc1,inactive: 76%
20,CC1=C(c2ccc(Cl)cc2)S(=O)(=O)N=C1N1CCN(c2cccc(C(F)(F)F)c2)CC1,inactive: 79%
21,O=C(Cn1cnc2ccccc2c1=O)Nc1ccccc1,inactive: 106%
22,O=C(NCc1ccccc1Cl)c1ccc(CSCc2cccc(F)c2)o1,active: -1%
23,C=CCN1C(=O)C(C)(C)N(C(C)=O)c2ccccc21,inactive: 121%

row,Structure (SMILES),survival
1,Cc1ccc(-n2nnnc2CNC(=O)c2ccccc2F)cc1C,inactive: 94%
2,Cc1ccc(NC(c2nnc(-c3ccccc3)o2)c2ccccc2F)c([N+](=O)[O-])c1 (centres undefined),inactive: 119%
3,CC(C)(C)NC(=O)C1C2CCCCC21 (centres undefined),inactive: 111%
4,CCn1c(-c2ccc(C(C)(C)C)cc2)n[nH]c1=S,inactive: 116%
5,O=C(Cn1cnc2c(cnn2-c2ccccc2)c1=O)c1ccccc1,inactive: 106%
6,O=C(Nc1c(C(=O)Nc2cccc(C(F)(F)F)c2)oc2ccccc12)c1cc(=O)c2ccccc2o1,inactive: 85%
7,O=C(O)CCn1cnc2onc(-c3ccccc3Cl)c2c1=O,inactive: 81%
8,Cc1cccn2c(=O)cc(COc3ccc(NC(=O)c4cccc(F)c4)cc3)nc12,active: -1%
9,CCC1CCCCN1C(=O)Cn1c(=O)n(CCCCCC(=O)NCc2ccc(F)cc2)c(=O)c2sccc21 (centres undefined),inactive: 138%
10,CCn1c(=O)c2cc(C(=O)NCCCN(C)Cc3ccccc3)sc2c2ccccc21,inactive: 86%
11,CCc1cccc(NC(=O)Cn2cc(C(=O)c3ccncc3)c(=O)c3cc(C)c(C)cc32)c1,inactive: 135%
12,Cn1nnc2cc(C(=O)N(CCO)c3ccccc3)ccc21,inactive: 115%
13,O=C(NCc1ccc(Cl)cc1)c1ccc2c(c1)NC(=O)C(CS(=O)(=O)Cc1ccccc1Cl)N2 (centres undefined),inactive: 74%
14,CCOc1ccc(NC(=O)CCS(=O)(=O)c2ccc(Br)s2)cc1,inactive: 76%
15,Cc1cccc(NC(=O)CN2C(=O)COc3ccc(S(=O)(=O)N4CCC(C)CC4)cc32)c1C,inactive: 101%
16,CCN(CC)CCCNC(=O)c1nn(-c2ccc(OC)c(Cl)c2)c(=O)c2c1c1ccccc1n2C,inactive: 80%
17,Cn1nnnc1SCCNCc1ccc(OCc2ccccc2)cc1,inactive: 74%
18,COC(=O)c1sccc1S(=O)(=O)N(CC(=O)NCc1ccccc1)c1ccc(C)c(C)c1,active: 14%
19,COc1ccc(NC(=O)CSc2nnc3scc(-c4ccc(Cl)cc4)n23)cc1,inactive: 131%
20,CCOC(=O)c1c(C)c(-c2ccccc2)n(CC(=O)Nc2cccc(F)c2)c1C,inactive: 90%
21,O=C(Nc1noc2ccccc12)c1c(F)cccc1F,inactive: 81%
22,Cc1ccc(N2CCN(S(=O)(=O)N3CCOCC3)CC2)cc1Cl,inactive: 99%
23,Cc1ccc(CNC(=O)Cn2c(=O)n(-c3ccc(C)c(F)c3)c(=O)c3sc4ccccc4c32)cc1,inactive: 104%

row,Structure (SMILES),survival
1,Cc1ccc(S(=O)(=O)N(CC(=O)N2CCc3ccccc3C2)c2ccc(C)c(C)c2)cc1,inactive: 77%
2,O=C(Nc1cc(F)ccc1F)c1ccc2c(c1)nnn2C1CCCC1,inactive: 73%
3,CCOc1ccc(-c2nc3c(C#N)c[nH]n3c2NC2CCCCC2)cc1,inactive: 65%
4,CCOc1ccc2nc(NCCNC(=O)Nc3ccc(SC)cc3)c(C#N)cc2c1,inactive: 106%
5,CCc1ccc(CNC(=O)C2CCCN(c3nn4cc(-c5ccc(F)cc5)nc4s3)C2)cc1 (centres undefined),inactive: 83%
6,CCOC(=O)c1ccccc1NC(=O)N1CCCN(S(=O)(=O)c2ccc3c(ccn3CC)c2)CC1,inactive: 65%
7,Cc1cccc(-c2nc(CCNC(=O)c3ccccc3Br)cs2)c1,inactive: 133%
8,CCCC(=O)Nc1cc(C(=O)NCc2ccc(OC)cc2)ccc1S(=O)(=O)c1ccc(Cl)cc1,inactive: 69%
9,Cc1nn(CC(=O)NCc2ccccc2Cl)c(=O)c2cccn12,inactive: 86%
10,CCOC(=O)C1CCN(C(=O)C2CCN(c3nnc(C)c4c(C)n(-c5ccccc5)nc34)CC2)CC1,inactive: 136%
11,COc1ccc(-c2cc(OC(=O)c3ccc(F)cc3)c3c(C)oc(C)c3c(=O)c2)cc1OC,inactive: 85%
12,COc1ccc(NC(=O)C2CCCN(S(=O)(=O)c3c(C)n[nH]c3C)C2)cc1OC (centres undefined),inactive: 118%
13,COc1ccc(-c2noc(CSc3nnc(-c4ccccc4)n3-c3ccc(F)cc3)n2)c(OC)c1,inactive: 103%
14,Cc1ccc(Cc2c(C)nn(-c3nc(C)c(C(=O)N4CCCCC4C)s3)c2C)cc1 (centres undefined),inactive: 76%
15,O=C(Nc1ccc(N2CCCCC2)cc1)c1cccs1,inactive: 125%
16,CCc1nn(CC(=O)NCc2ccc(OC)cc2OC)c(=O)c2cc3c(OC)cccc3n12,inactive: 85%
17,Cc1cccc(NC(=O)CN2c3ccccc3S(=O)(=O)c3ccccc32)c1C,active: -3%
18,CCC(=O)N1CCc2cc(S(=O)(=O)NC(C(=O)NCCc3ccc(Cl)cc3)C(C)C)ccc21 (centres undefined),inactive: 79%
19,CC(C)(C)c1ccc(CSc2nnc(-c3ccco3)n2-c2ccccc2)cc1,inactive: 109%
20,COc1ccc(NC(=O)C2CCCN(S(=O)(=O)c3ccc(Cl)cc3)C2)cc1 (centres undefined),inactive: 84%
21,Cc1ccc(C)c(N2CCN(c3nccn4nc(-c5ccc(Br)cc5)cc34)CC2)c1,inactive: 168%
22,Cc1ccc(Cl)cc1NC(=O)C(NS(=O)(=O)c1cccc2nsnc12)c1ccccc1 (centres undefined),inactive: 72%
23,COc1cc(C2c3c(oc4ccccc4c3=O)C(=O)N2c2nc(C)c(C)s2)ccc1O (centres undefined),inactive: 69%

row,Structure (SMILES),survival
1,Cc1nc2nc(NC(=O)c3ccc(F)cc3)[nH]n2c(=O)c1Cc1ccccc1,inactive: 88%
2,O=C1C=C(NCc2ccc(Cl)cc2)CC(c2ccco2)C1 (centres undefined),inactive: 107%
3,O=C(COCc1cc(-c2cccs2)on1)NCc1ccccc1Cl,inactive: 88%
4,Cn1c(=O)oc2cc(S(=O)(=O)CCC(=O)NCCc3ccccc3)ccc21,inactive: 72%
5,CCCOC(=O)c1ccc2c(c1)C(=O)N(c1ccccc1)C2=O,inactive: 106%
6,Cc1ccccc1NC(=O)Nc1ccc2nc(N3CCN(C)CC3)cc(C)c2c1,inactive: 75%
7,CC(=O)c1cc(-c2ccc(F)cc2)n(CC(=O)NC(C)c2ccccc2)c1C (centres undefined),inactive: 71%
8,Cc1cccn2c(=O)c(/C=C(\C#N)c3nc4ccccc4s3)c(Oc3ccc(Br)cc3)nc12,inactive: 129%
9,O=C(NCc1ccccc1F)C1CCN(Cc2cc3ccccc3n2Cc2cccc(Cl)c2)CC1,inactive: 70%
10,Cc1c(C(=O)OC2CCCCC2)[nH]c2c1C(=O)CC(c1ccccc1Cl)C2 (centres undefined),inactive: 97%
11,Cc1cc(C)n(-c2nnc(Nc3ccc(C(C)C)cc3)c3ccccc23)n1,inactive: 74%
12,CC(=O)c1ccc(NC(=O)C2=CC(c3cccs3)=NS(=O)(=O)N2C)cc1,inactive: 89%
13,COc1ccc(CNCc2ccc3c(c2)n(C)c(=O)n3C)cc1,inactive: 90%
14,COc1cccc(C(=O)NC(=O)Nc2ccc(-n3nc(C(F)(F)F)cc3C(F)(F)F)cc2)c1,inactive: 87%
15,Cc1ccc2nc(-c3ccc(NC(=O)C(F)(F)F)cc3)sc2c1,inactive: 130%
16,COc1cc(Nc2nc(SCc3cccc(Cl)c3)nc3ccccc23)cc(OC)c1,inactive: 32%
17,Cc1nc2c(c(C)nn2-c2ccccc2)c(C)c1CCC(=O)Nc1ccc(F)cc1,inactive: 88%
18,Fc1ccc(Nc2c3c(nc4nncn24)CCC3)cc1,inactive: 82%
19,CCN(c1ccccc1)S(=O)(=O)c1ccc(NC(=O)c2cc(=O)c3ccc(C)c(C)c3o2)cc1,inactive: 86%
20,Cc1ccc2c(CC(=O)Nc3c(C(=O)c4ccc(F)cc4)oc4ccccc34)coc2c1,inactive: 82%
